Experimental data: PubChem BioAssay AID493208 (National Center for Advancing Translational Sciences (NCATS), 2011)
Among all 44,000 compounds or so, about 340 (0.77%) were called active. Roughly 5% stayed inconclusive and do not appear here. The call rests on the fitted dose curve; in most records, active means well fitted inhibition curve with a large enough effect; inconclusive means small, poorly fitted or top-dose-only effect; inactive means flat fitted curve, though single readings scatter. Some of the results follow.

Test: Acumen qHTS Assay for Inhibitors of the mTORC1 Signaling Pathway in MEF (Tsc2-/-, p53-/-) Cells: Sytravon;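 further: plate controls were DMSO for no effect and rapamycin for full effect; nearly all actives have a fitted effect of over 50% in size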
Settings: phospho-rpS6 immunofluorescence/PI, 24 h; series mostly up to 38.3 µM; activity change, negative = inhibition: at the top concentration
Summary of the method: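 Tsc2-/-, p53-/- mouse embryonic fibroblasts (empty-vector line) exposed to compound 24 hrs at 37 C, fixed, immunostained for phospho-rpS6 and counterstained with propidium iodide. Acumen laser scanning gives % positive cells from Alexa 488/PI ratio, thresholded using 7.5 nM rapamycin; PI count gives viability.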

Activity change, negative = inhibition, inactive:
COc1cc(NC(=O)C(Cc2ccccc2)NS(=O)(=O)c2cccs2)cc(OC)c1 (stereo unspecified) -4.21%, Cc1noc(/C=C/c2ccccc2F)c1S(=O)(=O)N1CCC(C(=O)NCC(C)c2ccccc2)CC1 (stereo unspecified) 2.08%, CC(C)Oc1ccccc1NC(=O)CSc1nccn1C 6.13%, OCCCn1c(-c2ccc(F)cc2)csc1=Nc1ccc(F)cc1 -4.01%, Cc1ccc(-n2c(=O)c3c(c4cc(C)ccc4n3C)n(CC(=O)c3ccc(Cl)cc3)c2=O)cc1 -6.79%, O=C(O)CSc1nc2ccc(NC(=O)COc3ccc(Cl)cc3)cc2s1 -10.1%, COC(=O)c1ccc(NC(=O)CSc2nnc3c4ccccc4n(C(C)C)c3n2)cc1 -0.949%, Cc1ccc(NC(=O)c2ccc(CN3CC(=O)N4CCCCC4C3=O)cc2)c(C)c1 (stereo unspecified) -16%, Cc1ccc2c(=O)c(C(=O)c3ccc(F)cc3)cn(CC(=O)Nc3ccc4c(c3)OCCO4)c2n1 4.8%, COC(=O)c1ccccc1NC(=O)c1nc(-c2ccc(Cl)cc2)n2c1CCCCC2 -1.9%, CCOc1cccc(C(=O)Nc2cc(C)c(O)c(-c3nc4ncccc4o3)c2)c1 5.35%, COc1ccc(CNC(=O)CC(c2ccc(OC)cc2)N2Cc3ccccc3C2=O)cc1 (stereo unspecified) -3.82%, CCOC(=O)c1c(NC(=O)c2cc(=O)c3cc(C)cc(C)c3o2)sc(C)c1C -2.25%, O=C(CSc1nccn1C1CCCC1)Nc1cc(C(F)(F)F)ccc1Cl -20.2%, Cc1ccc(-c2nn(CC(=O)NCc3ccccc3)c3c2cnc2ccc(F)cc23)cc1C 0.278%, CCCNC(=O)CN1C(=O)COc2ccc(S(=O)(=O)N3CCC(C)CC3)cc21 -10.3%, COc1ccc(OC)c(-n2c3c(cc(-c4nc(-c5ccc(Cl)cc5)cs4)c2=O)C(=O)CC(C)(C)C3)c1 -2.4%, O=C(c1ccc2c(c1)N(Cc1ccccc1)C(=O)c1ccccc1S2(=O)=O)N1CCc2ccccc21 -8.42%, Cc1c(NC(=O)C(C)(C)Oc2ccc(Cl)cc2)cccc1-c1nc2ccccc2o1 0.705%, COc1ccccc1CNC(=O)CSc1ccc(-c2sc(-c3ccccc3)nc2C)nn1 1.55%, CCOc1ccc(OCC)c(NC(=O)c2cc3ccccn3n2)c1 1.3%, CCC(=O)N1CCc2cc(S(=O)(=O)NC(Cc3ccccc3)C(=O)Nc3ccccc3C)ccc21 (stereo unspecified) 0.136%, CN(C(=O)CSc1nnc(COc2ccccc2)o1)c1ccccc1 1.52%, CC(=O)c1cccc(NS(=O)(=O)c2cc3c(cc2C)n(C)c(=O)c(=O)n3C)c1 -2.1%, Cc1cccc(NC(=O)C(=O)NCC(c2ccc3c(c2)OCO3)N2CCN(c3ccccc3)CC2)c1 (stereo unspecified) -0.94%, CCOCCCNC(=O)C(c1ccccc1)N1Cc2ccccc2C1=O (stereo unspecified) 1.18%, O=C(Nc1sc2c(c1C(=O)Nc1ccccc1)CCC2)c1ccc(Br)cc1 6.67%, CCc1ccc(NC(=O)Cn2c(=O)n(CCC(=O)NCCc3ccc(Cl)cc3)c(=O)c3ccccc32)cc1 8.88%, COc1ccc(C(=O)Nc2nc(-c3nnn(-c4ccc(C(C)C)cc4)c3C)ns2)cc1 -5.61%, COc1ccccc1CCNC(=O)C(C)Sc1nc(-c2ccccc2)cc(C(F)(F)F)n1 (stereo unspecified) 3.03%, O=C(Cn1ncn2c(cc3ccccc32)c1=O)NCc1ccc(F)cc1 1.12%, COc1ccc(F)cc1S(=O)(=O)Nc1cccc(-c2ccc(N3CCC(C)CC3)nn2)c1 -4.18%, Cc1ccc(-c2cc(-c3ccccc3)c(C#N)c(SCC(O)CS(=O)(=O)Cc3ccccc3)n2)cc1 (stereo unspecified) 8.09%, COc1ccc(Nc2ncnc3c2nc2n3CCCCC2)cc1 0.485%, CCCOc1ccc(CNC(=O)c2[nH]c3cc(OC)ccc3c2Sc2ccccc2)cc1 -11.6%, CC(=O)Nc1ccc(N(C(=O)Cn2nnc3ccccc32)C(C(=O)NCc2ccccc2)c2ccc(C)cc2)cc1 (stereo unspecified) -12.4%, COc1ccc(CCNC(=O)c2c(C)oc3ncn(C)c(=O)c23)c(OC)c1 -4.19%, O=C1C(c2ccc(F)cc2)N(CCc2ccccc2)C(=O)CN1C1CCCCCC1 (stereo unspecified) 5.5%, CCN(C(=O)CSc1nc2ccccc2n1Cc1ccc(F)cc1Cl)c1ccccc1 5.9%, CCOC(=O)C(Cc1c[nH]c2ccccc12)NC(=O)COc1ccc(CC)cc1 (stereo unspecified) 6.77%, Cc1cc(NC(=O)CN2CCC(C)CC2)nc2c1c(=O)oc1ccccc12 7.03%, COc1ccc(C)cc1N(C)C(=O)CCc1nc(-c2ccccc2F)no1 -22.5%, CCOC(=O)c1c(C)[nH]c(C)c1S(=O)(=O)N1CCC(C(=O)NCc2ccccc2Cl)CC1 0.814%, Cc1ccc(Cl)cc1NC(=O)CN1C(=O)CCc2ccccc21 0%, CCCCNc1oc(-c2ccc(COc3ccc(OC)cc3)o2)nc1C#N -8.43%, COc1ccc(CC(=O)NCc2nc3cccnc3n2Cc2ccccc2)cc1 -0.644%, COC(=O)c1ccccc1NC(=O)CCCn1c(=O)c2cccn2c2cccnc21 -2.7%, CN(C)c1ccc(Nc2ncnc3sc4c(c23)CCCC4)cc1 0%, O=C(Cn1cnc2ccccc2c1=O)NCCC(=O)Nc1ccc(F)cc1 4.99%, CC(C)COc1ccc(C(=O)Nc2cc(-c3ccccc3)no2)cc1 1.76%, COc1cccc(N2CCN(S(=O)(=O)c3cc(-c4cc(C)no4)ccc3C)CC2)c1 -2.32%, CCCCN(CC)CCCNC(=O)Cn1ncc2c([nH]c3ccc(C)cc32)c1=O 7%, O=c1c2cn[nH]c2nc(SCc2c(F)cccc2F)n1-c1ccc(Cl)cc1 3.51%, CCOc1cccc(C(=O)Nc2nc3c(s2)CC(C(C)(C)C)CC3)c1 (stereo unspecified) 2.75%, COc1ccc(N(CC(=O)N2CCN(c3ccc(F)cc3)CC2)S(=O)(=O)c2c(C)noc2C)cc1 -9.6%, O=C(NCc1ccco1)c1ccc2c(c1)N(Cc1ccc(F)cc1)C(=O)c1ccccc1S2(=O)=O -18.3%, COc1cccc(CNC(=O)c2cc(Sc3cccc(Cl)c3)nc3ccccc23)c1 3.22%, Cc1ccc(/C=C/C(=O)Nc2ccccc2C(N)=O)o1 -0.927%, COc1cc(OC)cc(-c2nc3n(n2)C(c2ccccc2)C(C(N)=O)=C(C)N3)c1 (stereo unspecified) 3.12%, COc1ccccc1NC(=O)COc1ccc(-c2nn(C)c(=O)c3ccccc23)cc1 -1.44%, Cc1c(C(=O)N2CCOCC2)oc2c1-c1nn(CC(=O)NCc3cccc(Cl)c3)cc1CC2 -1.07%
